Results on three molecules are retold here after patent US20040266790A1 (priority 2003, published 2004).

For series [1] the following is noted: reported by U.S. Pat. No. 5,616,587; method not described; cited from earlier work.

Counter-ions that a name gives are not always drawn. Like-named read-outs stand apart in the source and are kept apart here.

Turning to `Cc1nc2n(c(=O)c1CCN1CCC(c3noc4cc(F)ccc34)CC1)CCCC2.Cc1nc2n(c(=O)c1CCN1CCC(c3noc4cc(F)ccc34)CC1)CCCC2.Cl.Cl.O.O.O.O.O` [risperidone monohydrochloride hph, Risperidone Hydrochloride Hemipentahydrate], the water content by setting is: (after heating at 80° C. for only 1.5 hours) 1.2%; (dried in vacuo at 40° C. for five days) 0.55%. Moreover, the “water content after re-uptake of water” value (dehydrated sample re-exposed, expected, other experiments confirmed) was “about 8.9%”. Take `Cc1nc2n(c(=O)c1CCN1CCC(c3noc4cc(F)ccc34)CC1)CCCC2` [Example 2, Risperidone Monohydrochloride]: the water content (after exposure to air under ambient conditions for 3 weeks (initial 0.18%)) was determined as 0.39%.

risperidone tartrate: the room temperature solubility entry in series [1] was “about 80 mg/ml”.
